This note sets out measurements from PubChem BioAssay (NCI).

Values joined by “and” are separate entries in the source; they are usually repeats but may differ in a detail not shown here. Identical values can stand only once.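 Compound exposure: 48 hours, 5 concentrations, 96-well plates. GI50 is the concentration that inhibits growth by half. TGI: concentration producing complete growth inhibition.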 Active and inactive are the calls of the source. No stated cut-off is given here; in the data, active means GI50 below about 0.43 µM; inactive means the rest. Some results are limits rather than exact numbers.

In the test the test system is NCI-H322M lung. The test is described as follows: NCI anticancer screen, dose series, 48 h.

On to `Cc1cccc2c1CC(C1OC(=O)c3ccccc31)C2=O` (configuration not stated), for which the TGI was greater than 100 µM.

On to `C[C@]12CC[C@H](O)CC1=CC[C@@H]1C2CC[C@]2(C)c3n[nH]nc3CC12` (some centres not stated), for which the TGI is greater than 100 µM.

Consider `Cc1c([C@H](C(Cl)Cl)[C@H](O)[C@H]2C[C@H](C)C(=O)O2)ccc2c1C(=O)[C@H]1[C@H]2C[C@@H](Br)[C@@]23O[C@@H](CO[C@H]2O)CC13C` (some centres not stated), for which the GI50 was 0.887 µM and the TGI is greater than 50 µM.

Take `CCOC(=O)C(C(CC(=O)OC)NC(=O)OCc1ccccc1)C1(C)OCCO1` (configuration not stated): the TGI is greater than 100 µM.

Molecule `CCN(C(=N)C#N)c1ccccc1` showed a TGI greater than 100 µM.

`CCCc1nc(N)nc(C(=O)Nc2cccc(C(F)(F)F)c2)c1CC` came in with a TGI greater than 100 µM.

As for `CCOC(=O)Cc1csc(NC(=O)COC(=O)c2ccc(N)cc2)n1`, the GI50 was greater than 100 µM and the TGI is greater than 100 µM.

Molecule `CC(/C=N/N(C)C1=NCCCN1)=N/N(C)C1=NCCCN1` registered a TGI greater than 100 µM.

`O=C(CN=C(CN(c1ccccc1)c1ccccc1)Oc1c(Cl)cc(Cl)cc1Cl)N1c2ccccc2Sc2ccccc21` had a TGI greater than 100 µM.

Consider `CCNCCCn1c2c(c3ccc(F)cc3c1=O)C(=O)c1cc(OC)cnc1-2`, for which the GI50 is 0.436 µM and the TGI was found to be 4.81 µM.

As to `O=C1C=CC(=O)c2c1ccc1c3ccccc3n(CCCCCCCCn3c4ccccc4c4ccc5c(c43)C(=O)C=CC5=O)c21`, the TGI was greater than 100 µM.

`O=C1C(Cl)C(c2cc(Br)cc(Br)c2O)N1n1cnc2ccccc2c1=O` (configuration not stated): the TGI worked out at 53.8 µM.

For `CCOC(=O)c1csc(CCCCCCc2nc(C(=O)OCC)cs2)n1`, the TGI was greater than 100 µM.

In turn, `c1ccc2c(c1)c1ccccc1c1n[se]nc21` came in with a TGI greater than 100 µM.

Molecule `O=Cc1c(O)ccc2ccc(O)c(-c3c(O)ccc4ccc(O)cc34)c12` yielded a TGI greater than 100 µM.

In the case of `C=C1C(=O)O[C@H]2[C@H]1CC/C(CNC(=O)c1cccc3ccccc13)=C\CC[C@@]1(C)O[C@@H]21`, the GI50 is 11 µM and the TGI came out at 23.3 µM.

With `O=C1NC(=O)/C(=C/c2c(Cl)nc3sccn23)S1`, the GI50 was greater than 89.1 µM and the TGI is greater than 100 µM.

Take `CCOC(=O)c1nc2cc(C(F)(F)F)ccc2nc1Oc1ccc(OC)cc1`: the TGI was greater than 100 µM.

`COC(=O)C1(NC(=O)C(CC(=O)OCc2ccccc2)NC(=O)OCc2ccccc2)CCCCCCC1` (configuration not stated) gave a TGI greater than 100 µM.

For `O=C1c2ccccc2-c2nc(-c3ccncc3)cc3c2c1nc1ccccc13`, the TGI was greater than 100 µM.

Molecule `COC1=CC(=O)c2c(ccc3ncnc(N)c23)C1=O` came in with a TGI of 6.57 µM.

`COc1ccc(C(c2ccc(C(C)C)cc(OC)c2=O)c2ccc(C(C)C)cc(OC)c2=O)cc1` registered a TGI of 27.2 µM.

Regarding `COc1ccc2c(c1)C1C(CO2)C(c2ccccc2)=NN1c1ccccc1` (configuration not stated), the TGI was greater than 100 µM.

`Oc1ccc(-c2nc3ccc4ccccc4c3c3c2CCCC3)c(O)c1` had a TGI greater than 100 µM.

With `COC(=O)C1C(O)C(C)C(=O)C(C)/C=C\C=C(C)C(=O)Nc2c(C)c(OC(C)=O)c3c(c2O)C(=O)C(C)=C2OCOC(=C23)C(C)=CC(C)(O)C(O)C(C)C1O` (configuration not stated), the TGI was greater than 100 µM.

As to `Nc1c(Br)cc2c(c1Br)Cc1cc(Br)ccc1-2`, the TGI is greater than 100 µM.

`O=C(c1ccc(Cl)cc1Cl)N(/N=C/C=C/c1ccccc1)c1nnc(-c2ccccc2)c(-c2ccccc2)n1` displayed a TGI greater than 100 µM.

`COc1cc(/C=C/C(=O)Oc2ccc(NC(C)=O)cc2)ccc1C(=O)OCc1ccccc1` gave a TGI greater than 100 µM.

In turn, `CC(C)=CC(=O)c1[nH]c2ccccc2c1CC(=O)NCCc1cn(C(c2ccccc2)(c2ccccc2)c2ccccc2)cn1` yielded a TGI greater than 100 µM.

`COC(=O)C1Cc2c([nH]c3ccccc23)C(C2CCCCC2)N1` (configuration not stated) showed a TGI greater than 100 µM.

`CC1OC(OC2C(O)C(OCCc3ccc(O)c(O)c3)OC(CO)C2OC(=O)/C=C/c2ccc(O)c(O)c2)C(O)C(O)C1OC1OCC(O)(CO)C1O` (configuration not stated): the GI50 was greater than 100 µM and the TGI is greater than 100 µM.

As for `COc1ccc([C@@H]2C[C@@H]3C(=O)OC(=O)[C@@H]3c3c2c2ccccc2n3C)cc1`, the TGI was greater than 100 µM.

`COc1ccc(-c2csc(-n3c(-c4ccccc4)nc4c(Br)cc(Br)cc4c3=O)n2)cc1`: the TGI is greater than 100 µM.

Molecule `CC(=O)OC1CC2CC(=O)CC1N2C` (configuration not stated) returned a TGI greater than 100 µM.

The molecule `O=C(Nc1c(Cl)cccc1Cl)c1c(Cl)c(Cl)c(Cl)c(Cl)c1-c1nc2ccccc2[nH]1` had a TGI greater than 100 µM.

The molecule `CC(CCOc1c2ccoc2cc2oc(=O)ccc12)C1=CC(=O)C(C)(C)O1` (configuration not stated) returned a TGI greater than 100 µM.

`NS(=O)(=O)c1ccc(N=Cc2c(O)[nH]c3ccc4ncsc4c23)cc1`: the GI50 is 1.07 µM and 2.68 µM; the TGI is greater than 19.4 µM.

`CNC(=O)C(CCc1ccccc1)NC(=O)C(CC(=O)NO)CC(C)C` (configuration not stated): the GI50 was greater than 25 µM and the TGI was greater than 25 µM.

As for `CCOC(=O)C1(Cc2ccc3c(c2)CCC3)Cc2cc3c(cc2C1=O)CCC3` (configuration not stated), the TGI was greater than 100 µM.

The molecule `O=C1NN=C2C=C(c3ccc(Cl)cc3)CC(c3cccc(Br)c3)C12` (configuration not stated) returned a TGI greater than 100 µM.

Consider `COc1ccc2c(c1)C(N)=C(c1ccccc1OC)C2=O`, for which the TGI is greater than 100 µM.

With `COC(=O)CCC1=NOC(CC2CC(CCC(=O)OC)=NO2)C1` (configuration not stated), the TGI is greater than 100 µM.

`Cc1c(S(=O)(=O)/N=C(\NN)Nc2ccc(Cl)cc2)sc2ccc(Cl)cc12` gave a TGI of 31.1 µM.

In turn, `CN(NC(=O)/C(=C/c1ccc(Cl)cc1)NC(=O)c1ccccc1)c1cn[nH]c(=O)c1Cl` gave a TGI greater than 100 µM.

`C[n+]1c2ccccc2n2c3ccccc3c(NCCCN3CCOCC3)c(C#N)c21`: the TGI stood at 10.8 µM.

Molecule `CCCCC1CC(c2ccc(Cl)cc2)=NO1` (configuration not stated) had a TGI greater than 100 µM.

The molecule `COC(=O)[C@@H]1C[C@@]23CCCN4CC[C@@]5(c6cccc(OC)c6N(C=O)[C@]15CC2)[C@@H]43` yielded a TGI greater than 100 µM.

With `COc1ccc(S(=O)Cc2cc(OC)c(OC)c(OC)c2)cc1` (configuration not stated), the TGI is greater than 100 µM.

As for `c1cc(-c2ccc(-c3ccc(C4=NCCCN4)cc3)o2)ccc1C1=NCCCN1`, the TGI was greater than 100 µM.

Molecule `CCC(O)CC1OC2(CCC1C)CC1OC(=O)/C=C\C(C)(O)C(O)C(C)C(O)C(OC3CC(OC)C(O)C(C)O3)C(O)C(C)(O)CCC/C=C/C3CC(C)COC3(O)CC(O2)C1C` (configuration not stated) displayed a TGI greater than 92.6 µM.

The molecule `O=C1CSC(c2ccccc2O)N1c1ccc(-c2ccc(-n3c(-c4ccccc4)nc4ccccc4c3=O)cc2)cc1` (configuration not stated) displayed a TGI of 65.2 µM.

With `CN1CCCC1c1cccnc1.O=C(O)c1ccccc1O.O=C([O-])c1ccccc1[OH2+].O=C([O-])c1ccccc1[OH2+].O=C([O-])c1ccccc1[OH2+].[Cu+2]` (configuration not stated), the GI50 is 57.6 µM and the TGI was greater than 100 µM.

As for `COC1CCN(N(C)C)O1` (configuration not stated), the TGI was greater than 100 µM.

The molecule `CCOC(=O)/C(=C\c1ccccc1)C(=O)CCN1CCOCC1` registered a TGI of 53.2 µM.

As for `COC(=O)C1=C(OC(=O)c2ccccc2)C(C(=O)OC)[C@]2(O)[C@@H](C(=O)OC)C1CC(c1ccccc1OC)[C@@H]2C(=O)OC` (some centres not stated), the GI50 is 24.4 µM and the TGI was greater than 100 µM.

On to `C[C@H](N)C(O)C/C=C\CC(O)/C=C/C=C\C/C=C\C/C=C\C/C=C\CCCCCCC(O)[C@H](C)N` (some centres not stated), for which the result was inactive.

In the case of `O=[N+]([O-])c1ccc(C(Br)c2ccc([N+](=O)[O-])cc2)cc1`, the GI50 is 14.8 µM and the TGI is 29.3 µM.

The molecule `NCCCCCCn1c(-c2ccc(Br)cc2)csc1=Nc1ccccc1` displayed a TGI of 25.7 µM.

For `Sc1ccccc1S`, the TGI was greater than 100 µM.

As to `COc1ccc(-c2cn3c(nc4ccccc43)c(/C=C/c3cccs3)n2)cc1`, the TGI was greater than 100 µM.

Regarding `CCOC(=O)c1c(NC(=O)COc2cccc3cccnc23)sc(C(=O)N(C)C)c1C`, the GI50 is 26.8 µM and the TGI is greater than 100 µM.

`N#C/C(C(=O)Nc1ccccc1)=C(/N)N1CCCC1` returned a TGI greater than 100 µM.

Take `C[CH2][Sn]([CH2]C)([O]C(=O)c1cccc(OC)c1)[O][Sn]([CH2]C)([CH2]C)[O]C(=O)c1cccc(OC)c1`: the GI50 is greater than 72.1 µM and the TGI was greater than 100 µM.

`C=CCSc1nc2c(N)ncnc2n1C1OC(CO)C(O)C1O` (configuration not stated) showed a TGI greater than 100 µM.

In the case of `COc1ccc2c(c1)[C@@H]1c3cc(OC)c(OC)cc3CCN1CCC2`, the TGI is greater than 100 µM.

In the case of `NC(=S)N/N=C/c1c[nH]c2ccccc12`, the TGI was greater than 100 µM.

On to `COC(=O)Cc1cccc2c1CCC2=O`, for which the TGI is greater than 100 µM.

`CCOC(=O)NC(Nc1ccc(OC(F)(F)F)cc1)(C(F)(F)F)C(F)(F)F`: the TGI was greater than 100 µM.

In turn, `Cc1cc(C#N)c[n+](C)c1` displayed a TGI greater than 100 µM.

With `N#Cc1c(-c2ccc(Cl)cc2)csc1NC(=O)Nc1ccc(Cl)c(C(F)(F)F)c1`, the GI50 is 1.12 µM and the TGI was found to be 33.5 µM.

Molecule `NCCc1c[nH]c2ccc(OC(=O)C(=O)O)cc12` yielded a TGI greater than 100 µM.

In turn, `O=C(NCCOC(=O)OCCNC(=O)NC1CCCCC1)NC1CCCCC1` yielded a TGI greater than 100 µM.

For `Nc1ccccc1C#C/C=C\C#Cc1cnccn1`, the GI50 was 15 µM and the TGI was 49.2 µM.

`c1cc(-c2ccc(-c3ccc(-c4ccc(-c5cccc6nsnc56)[nH]4)c4nsnc34)[nH]2)c2nsnc2c1` gave a TGI greater than 100 µM.

`COc1ccc(N2C(=O)C3c4[nH]c5ccccc5c4C4CCC(c5ccccc5)CC4C3C2=O)cc1` (configuration not stated) displayed a TGI greater than 100 µM.

`O=C1c2scc(-c3ccccc3)c2-n2cccc21`: the TGI is 60.4 µM.

`COc1cc(C(=O)c2c(-c3ccccc3)oc3c(OC)cccc23)cc(OC)c1O`: the GI50 was 0.696 µM and the TGI is greater than 100 µM.

On to `CN(C)c1ccc(Nc2ncnc3ccccc23)cc1`, for which the GI50 was greater than 100 µM and the TGI was greater than 100 µM.

`CN(C)c1nc(=Nc2ccc3c(c2)OCO3)ss1` yielded a TGI greater than 100 µM.

The molecule `COc1ccc(/C=C/c2nsc(/C=C/c3ccc(OC)cc3)n2)cc1` registered a TGI greater than 100 µM.

`CCCC(=O)N(C(=O)CCC)C1=C(Cl)C(=O)c2ccccc2C1=O` returned a TGI greater than 100 µM.

As to `O=C1c2ccccc2C(=Nc2ccc3ccccc3c2)C1(C1=C(c2ccccc2)C(=Nc2ccc3ccccc3c2)c2ccccc21)c1ccccc1` (configuration not stated), the TGI is greater than 100 µM.

For the molecule `CCCCCOc1ccc(C=Nc2ccc(-c3ccc(N=Cc4ccc(OCCCCC)cc4)c(OC)c3)cc2OC)cc1`, the TGI was greater than 100 µM.

In the case of `CNc1ccc(/C=C2\C=Cc3ccccc32)cc1`, the TGI is greater than 100 µM.

On to `Cc1cc(-n2c(/C=C/c3ccc(Cl)cc3)nc3cc(Cl)ccc3c2=O)on1`, for which the TGI was 24.9 µM.
